Results taken from a collection of fitness landscapes (doi:10.1016/j.celrep.2020.107928).
In all, about 81,000 sequences were measured (“one-hybrid fitness for binding NBS DNA”: median about -0.1, highest 2% from about 0.36 on). Some of the results follow.

B1: Caulobacter ParB omega fusion; a variant is named by its letters at X, in order, B8GW30 (parent)
chain: MESVVVGEPGMSEGRRGLGRGLSALLGEVDAAPAQAPGEQLGGSREAPIEILQRNPDQPRRTFREEDLEDLSNSIREKGVLQPILVRPSPDTAGEYQIVAGERAWRAAQRAGLKTVPIMVRELDDLAVLEIGIIENVQRADLNVLEEALSYKVLMEKFERTQENIAQTIGKSXSHVANXMRLLXLPDEVQSYLVSGELTAXHARAIAAAADPVALAKQIIEGGLSVRETEALARKAPNLSAGKSKGGRPPRVKDTDTQALESDLSSVLGLDVSIDHRGSTGTLTITYATLEQLDDLCNRLTRGI

Variants of: B1
Assay: one-hybrid fitness for binding NBS DNA (the Noc-binding site; scaled: cognate 1, non-cognate 0); higher = stronger binding
Conditions: with NBS DNA site
Summary of the method: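 Fitness here means the log change in variant-to-wild-type read ratio between plasmids sequenced before and after selection. That scale was set so cognate equals 1 and non-cognate equals 0. The selection was a bacterial one-hybrid screen of Caulobacter ParB libraries, four specificity codons randomised, in E. coli USO carrying a HIS3 reporter with the site 19 bp from the promoter, grown 48 hours at 37°C on M9-minus-histidine with 0.1 mM IPTG and 5 mM 3-AT.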

Variant	one-hybrid fitness for binding NBS DNA
LAHY	≤ 0.2
CWRN	≤ 0.2
QSYI	≤ 0.2
FQAS	≤ 0.2
PYEY	≤ 0.2
GNTL	≤ 0.2
GTDM	≤ 0.2
EWLW	≤ 0.2
HRLG	≤ 0.2
TGGD	≤ 0.2
CMRR	≤ 0.2
AHFD	≤ 0.2
AVVW	≤ 0.2
MRAL	≤ 0.2
SPII	≤ 0.2
SHCC	≤ 0.2
SYTK	≤ 0.2
KIRA	≤ 0.2
TWRV	≤ 0.2
MLRR	≤ 0.2
QFPW	≤ 0.2
PDLL	≤ 0.2
LHKS	≤ 0.2
WFEC	≤ 0.2

Variant	one-hybrid fitness for binding NBS DNA
QDNW	≤ 0.2
WDAS	≤ 0.2
VPLK	≤ 0.2
IYNS	≤ 0.2
EKSF	≤ 0.2
DRDS	≤ 0.2
QWNS	≤ 0.2
ELMM	≤ 0.2
RNHR	0.279
PYPL	≤ 0.2
LMWC	≤ 0.2
TTSD	≤ 0.2
FVTR	≤ 0.2
NGQR	≤ 0.2
HNDV	≤ 0.2
PLCP	≤ 0.2
NFTP	≤ 0.2
TRNT	0.459
NGPG	≤ 0.2
DCDA	≤ 0.2
MMRV	≤ 0.2
RGIT	≤ 0.2
KAIY	≤ 0.2
KVTR	≤ 0.2

Variant	one-hybrid fitness for binding NBS DNA
QCGL	≤ 0.2
PLQN	≤ 0.2
DPDA	≤ 0.2
QEHG	≤ 0.2
QSPK	≤ 0.2
ACPL	≤ 0.2
WWKC	≤ 0.2
WSPE	≤ 0.2
HPMT	≤ 0.2
LAVG	≤ 0.2
RPEL	≤ 0.2
VTTA	≤ 0.2
LVWE	≤ 0.2
KNAP	≤ 0.2
YQKS	≤ 0.2
GSYF	≤ 0.2
FSFL	≤ 0.2
VIPA	≤ 0.2
ASEH	≤ 0.2
QNRS	0.352
PKAF	≤ 0.2
YPPA	≤ 0.2
IDRT	≤ 0.2
GYTF	≤ 0.2

Variant	one-hybrid fitness for binding NBS DNA
DKAC	≤ 0.2
QFDT	≤ 0.2
RYWW	≤ 0.2
MIIL	≤ 0.2
SDGC	≤ 0.2
IMMD	≤ 0.2
RMHN	≤ 0.2
RVGI	≤ 0.2
QQRI	0.383
VMFK	≤ 0.2
RTKQ	0.356
VQAG	≤ 0.2
YIIR	≤ 0.2
PRSF	≤ 0.2
SSER	≤ 0.2
MHVG	≤ 0.2
LHGF	≤ 0.2
PDSS	≤ 0.2
TYQN	≤ 0.2
GLET	≤ 0.2
QTDP	≤ 0.2
DLFS	≤ 0.2
FMNC	≤ 0.2
VIPT	≤ 0.2

Variant	one-hybrid fitness for binding NBS DNA
WICG	≤ 0.2
IDPW	≤ 0.2
FRTY	≤ 0.2
KQPK	≤ 0.2
KQRH	≤ 0.2
CLAT	≤ 0.2
YHMG	≤ 0.2
WGPL	≤ 0.2
PEIL	≤ 0.2
SSTN	≤ 0.2
GRWS	≤ 0.2
CSVG	≤ 0.2
DHSL	≤ 0.2
TRNP	≤ 0.2
EDRS	≤ 0.2
NRFI	≤ 0.2
TANV	≤ 0.2
PRNA	≤ 0.2
TRIT	≤ 0.2
VDYS	≤ 0.2
PISF	≤ 0.2
EPPT	≤ 0.2
VKPC	≤ 0.2
HLRG	≤ 0.2

Variant	one-hybrid fitness for binding NBS DNA
APTF	≤ 0.2
LRLD	≤ 0.2
WDMS	≤ 0.2
RYSF	≤ 0.2
CFGK	≤ 0.2
GPDG	≤ 0.2
SPVC	≤ 0.2
ATFN	≤ 0.2
TRTC	≤ 0.2
QFTK	≤ 0.2
SDTW	≤ 0.2
PAAP	≤ 0.2
YLAE	≤ 0.2
VFYW	≤ 0.2
NRGR	≤ 0.2
DMLG	≤ 0.2
KAET	≤ 0.2
WILL	≤ 0.2
QEPY	≤ 0.2
AIKS	≤ 0.2
PLQG	≤ 0.2
VVKG	≤ 0.2
PEWR	≤ 0.2
QICM	≤ 0.2

Variant	one-hybrid fitness for binding NBS DNA
SRDR	≤ 0.2
PHGK	≤ 0.2
LFMC	≤ 0.2
HHKR	≤ 0.2
CWMR	≤ 0.2
QDRK	≤ 0.2
RGIC	≤ 0.2
EQSA	≤ 0.2
QLGY	≤ 0.2
QGSM	≤ 0.2
PAPI	≤ 0.2
RRMT	0.776
SVLY	≤ 0.2
NKHC	≤ 0.2
GFRS	≤ 0.2
TWMR	≤ 0.2
QESP	≤ 0.2
VCDC	≤ 0.2
FYLT	≤ 0.2
GHAM	≤ 0.2
SADN	≤ 0.2
VPTT	≤ 0.2
MCHW	≤ 0.2
WPAT	≤ 0.2

Variant	one-hybrid fitness for binding NBS DNA
VHAA	≤ 0.2
YMDW	≤ 0.2
PHIN	≤ 0.2
PISP	≤ 0.2
VGLV	≤ 0.2
LIES	≤ 0.2
GQHG	≤ 0.2
GNIR	≤ 0.2
TVIT	≤ 0.2
DCQT	≤ 0.2
YLWG	≤ 0.2
WFPH	≤ 0.2
DPYV	≤ 0.2
LTQP	≤ 0.2
QNCK	≤ 0.2
EMPW	≤ 0.2
HFDP	≤ 0.2
DEYT	≤ 0.2
FTWR	≤ 0.2
RWCC	≤ 0.2
NRRG	≤ 0.2
VWGS	≤ 0.2
AFYG	≤ 0.2
RKSM	≤ 0.2

Variant	one-hybrid fitness for binding NBS DNA
PTDG	≤ 0.2
LNVV	≤ 0.2
GRKG	≤ 0.2
TLLW	≤ 0.2
HKFR	≤ 0.2
KNLL	≤ 0.2
HGMT	≤ 0.2
WTQT	≤ 0.2
NASN	≤ 0.2
QSDA	≤ 0.2
VFQM	≤ 0.2
NTKV	≤ 0.2
LPLT	≤ 0.2
AGWW	≤ 0.2
ECVR	≤ 0.2
SADG	≤ 0.2
CQCG	≤ 0.2
SLNG	≤ 0.2
DQWE	≤ 0.2
SMDS	≤ 0.2
EELS	≤ 0.2
QFCV	≤ 0.2
IIVS	≤ 0.2
RMMI	≤ 0.2

Variant	one-hybrid fitness for binding NBS DNA
WWDI	≤ 0.2
KTQT	≤ 0.2
RIYV	≤ 0.2
PFKM	≤ 0.2
WKPE	≤ 0.2
LYGR	≤ 0.2
DVTL	≤ 0.2
QSHW	≤ 0.2
GSQW	≤ 0.2
QSLK	≤ 0.2
RNSM	≤ 0.2
VAPL	≤ 0.2
GHAT	≤ 0.2
ALSW	≤ 0.2
NASM	≤ 0.2
KWWS	≤ 0.2
MYRS	≤ 0.2
CTDN	≤ 0.2
HRSR	≤ 0.2
CEVS	≤ 0.2
AWTN	≤ 0.2
GRNK	≤ 0.2
MCAC	≤ 0.2
AGEV	≤ 0.2

Variant	one-hybrid fitness for binding NBS DNA
SIAF	≤ 0.2
EVQT	≤ 0.2
TKVC	≤ 0.2
PPDE	≤ 0.2
ATIC	≤ 0.2
ITPY	≤ 0.2
VASL	≤ 0.2
ARNW	≤ 0.2
KDFR	≤ 0.2
LGID	≤ 0.2
RSGG	≤ 0.2
MVTG	≤ 0.2
ITQC	≤ 0.2
SLWF	≤ 0.2
SNAS	≤ 0.2
NCLE	≤ 0.2
DESK	≤ 0.2
SAPF	≤ 0.2
QKIH	≤ 0.2
IMDT	≤ 0.2
DMFC	≤ 0.2
DSHN	≤ 0.2
CRHY	≤ 0.2
ANTP	≤ 0.2

Variant	one-hybrid fitness for binding NBS DNA
FHFR	≤ 0.2
KTQD	≤ 0.2
HDPS	≤ 0.2
QHTN	≤ 0.2
AWRY	≤ 0.2
RWNG	≤ 0.2
HRQV	≤ 0.2
GVDL	≤ 0.2
GCAP	≤ 0.2
KIYR	≤ 0.2
TVMS	≤ 0.2
SGET	≤ 0.2
YTKG	≤ 0.2
QTCV	≤ 0.2
MPMT	≤ 0.2
GWPD	≤ 0.2
YWTR	≤ 0.2
ENLH	≤ 0.2
FMTE	≤ 0.2
IRDC	≤ 0.2
VRIA	≤ 0.2
LCLK	≤ 0.2
GTTM	≤ 0.2
KGCR	≤ 0.2

Variant	one-hybrid fitness for binding NBS DNA
WRPC	≤ 0.2
RTGE	≤ 0.2
RVTY	≤ 0.2
THVK	≤ 0.2
DCSR	≤ 0.2
LTLP	≤ 0.2
WRVR	≤ 0.2
WRNI	≤ 0.2
VSAH	≤ 0.2
WIPP	≤ 0.2
TYMW	≤ 0.2
RKLM	≤ 0.2
WRDV	≤ 0.2
SGVK	≤ 0.2
VAEC	≤ 0.2
MSPA	≤ 0.2
IMLR	≤ 0.2
NYPW	≤ 0.2
